From PubChem BioAssay AID686979 (National Center for Advancing Translational Sciences (NCATS), 2013)
Values joined by “and” are separate entries in the source; they are usually repeats but may differ in a detail not shown here. Equal values may be shown once. Screen size: about 420,000 compounds; about 50,000 (12%) were called active. The shares of active, inactive and inconclusive entries below differ from those in the screen. The call rests on the fitted dose curve; in most records, active means well fitted inhibition curve with a large enough effect; inconclusive means small, poorly fitted or top-dose-only effect; inactive means flat fitted curve, though single readings scatter. A potency beside an inconclusive call is a rough fit, not a confirmed value.

Test: qHTS for Inhibitors of human tyrosyl-DNA phosphodiesterase 1 (TDP1): qHTS in cells in presence of CPT; further: nearly all actives have a fitted effect of over 55% in size
Conditions: chicken DT40 Tdp1-/-;hTDP1 cells + 20 nM CPT, ATP luminescence, 48 h; activity change, negative = growth inhibition: at 46.2 µM (top of the series)
Outline: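 Cell growth measured by CellTiter-Glo luminescence after a minimum 48 h, 37 C compound exposure with 20 nM CPT in Tdp1-knockout DT40 cells stably expressing hTDP1, seeded 400/well; qHTS titration format.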
On the % scale 0 is the no-effect control and ±100 the full control effect; potency means the concentration at half of the fitted maximal effect; tags describe the fitted curve by direction and shape.

Row | SMILES | Potency | activity change, negative = growth inhibition
1 | CC1(C(=O)Nc2ccc3c(c2)OCCO3)CCN1C(=O)C1(c2ccc(Cl)cc2)CCC1 (centres undefined) | inconclusive: 29.1 µM [inhibitor, single point] | 
2 | O=C(Cn1nc(C(=O)O)c2ccccc2c1=O)c1cc(F)ccc1F | inconclusive: 25.9 µM [inhibitor, single point] | 
3 | CCOc1ccc2c(c1)c(=O)c(C(=O)c1ccc(CC)cc1)cn2CC(=O)Nc1cccc(Cl)c1 | inconclusive: 4.11 µM [inhibitor, single point] | 
4 | C=CCNc1nc2cc(-c3ccc(C(=O)N4CCOCC4)cc3)sc2c(=O)n1C | active: 16.4 µM | 
5 | Cc1cc(NC(=O)CCC(=O)N(Cc2ccccc2)C(C(=O)NC2CCCC2)c2ccco2)no1 (centres undefined) |  | inactive: -17.2%
6 | O=C(NC(=S)NCc1ccc(-c2nc3ccccc3s2)cc1)c1ccco1 | inconclusive: 18.4 µM [inhibitor, single point] | 
7 | Cc1ccc2occ(CC(=O)N(Cc3ccc(Cl)cc3)Cc3ccco3)c2c1 | inconclusive: 25.9 µM [inhibitor, single point] | 
8 | COc1ccc(CCNc2ccc(C(CC(N)=O)NC(=O)c3cc(OC)ccc3OC)cc2[N+](=O)[O-])cc1 (centres undefined) | active: 25.9 µM | 
9 | O=C(CC1C(=O)NCCN1C(=O)Nc1ccc(F)cc1)Nc1ccc(F)cc1 (centres undefined) |  | inactive: 11%
10 | CCOc1ccc(OCC)c(NC(=O)C2CCN(S(=O)(=O)c3ccc4c(c3)CC(C)N4C(C)=O)CC2)c1 (centres undefined) | inconclusive: 18.4 µM [inhibitor, single point] and inconclusive: 29.1 µM [inhibitor, single point] | 
11 | O=C(NC(=S)N1CCCCC1)C12CC3CC(CC(C3)C1)C2 |  | inactive: -4.93%
12 | O=C(NCc1cccc(C(F)(F)F)c1)c1csc([C@@H]2O[C@H](CO)[C@H](O)[C@H](O)[C@H]2O)n1 |  | inactive: -5.28%
13 | CCc1nnc(NC(=O)c2ccc(OC)c(S(=O)(=O)N3CCCC3)c2)s1 |  | inactive: -13.4%
14 | Fc1ccc(CNn2cnnc2SCc2ccc(F)cc2)cc1 | inconclusive: 18.4 µM [inhibitor, partial curve] | 
15 | Brc1cccc(C=Nc2cccc3ncccc23)c1 |  | inactive: 0.779%
16 | COc1ccc(/C=C/C(=O)Nc2ccccc2F)cc1S(=O)(=O)N1CCOCC1 |  | inconclusive: -7.95% [inhibitor]
17 | CNC(=S)N=Nc1c(O)[nH]c2ccc(C(C)C)cc12 | inconclusive: 29.1 µM [inhibitor, single point] | 
18 | CCC(C)(C)n1nnnc1CN1CCN(C(c2ccccc2)c2ccccc2)CC1 | inconclusive: 23.1 µM [inhibitor, single point] | 
19 | O=C(c1ccco1)N(Cc1cccs1)c1ccc(F)cc1 |  | inactive: -2.66%
20 | Oc1c(C=C2N=c3ccccc3=N2)sc(=S)n1-c1ccccc1 | inconclusive: 29.1 µM [inhibitor, single point] | 
21 | CN1CCN(C2=C(Cl)C(=O)N(c3ccc(Cl)cc3)C2=O)CC1 | inconclusive: 29.1 µM [inhibitor, single point] | 
22 | CCN(CC)C(=O)c1oc2ccc(S(=O)(=O)N3CCCCCC3)cc2c1C | inconclusive: 16.4 µM [inhibitor, partial curve] | 

Row | SMILES | Potency | activity change, negative = growth inhibition
23 | C=CCN(c1ccc(F)cc1)S(=O)(=O)c1cc(C(=O)NC2CC2)ccc1Cl | active: 20.6 µM | 
24 | Cc1cc(N/N=C/c2ccccc2Br)nc2ccccc12 | inconclusive: 29.1 µM [inhibitor, single point] | 
25 | COc1cccc(C(C)(O)c2nc(-c3cc(F)cc(F)c3)cs2)c1 (centres undefined) | inconclusive: 29.1 µM [inhibitor, single point] | 
26 | Cc1ccc(-n2c(CCC(=O)O)ccc2-c2cccs2)cc1Cl |  | inactive: -27.4%
27 | CC(=O)c1cccc(NC(=O)CSc2nc(=O)n(CCN3CCOCC3)c3c2CCC3)c1 |  | inactive: 0.823%
28 | CC1Cc2ccccc2N1C(=O)CCn1c(=O)oc2ccccc21 (centres undefined) | inconclusive: 32.6 µM [inhibitor, single point] | 
29 | O=C(CN1CCN(C/C=C/c2ccccc2)CC1)Nc1cc([N+](=O)[O-])ccc1Cl | inconclusive: 23.1 µM [inhibitor, single point] | 
30 | N#C/C(=N/Nc1ccccc1F)C(=N)N1CCOCC1 |  | inconclusive: -14.1% [inhibitor]
31 | C(=C\c1ccccc1)/C=N/N1CCN(c2ccccn2)CC1 | inconclusive: 29.1 µM [inhibitor, single point] | 
32 | COC(=O)C(C)Sc1ccc2nnc(-c3ccccc3)n2n1 (centres undefined) | inconclusive: 23.1 µM [inhibitor, single point] | 
33 | Cc1cscc1NC(=O)/C=C/C(=O)O |  | inactive: 3.59%
34 | CCCNC(=O)CSc1nnc(-c2ccc(F)cc2)o1 |  | inactive: -11.1%
35 | COc1cccc(C(C)(O)c2nc(-c3ccc(F)c(Cl)c3)cs2)c1 (centres undefined) | inconclusive: 23.1 µM [inhibitor, partial curve, poor fit] | 
36 | CC(C)c1nc2ccc(C(=O)NCc3ccccc3Br)cc2o1 | inconclusive: 18.4 µM [inhibitor, single point] | 
37 | O=C(CN(Cc1ccco1)C(=O)c1ccccc1F)Nc1ccccc1C(F)(F)F |  | inconclusive: -32.9% [inhibitor]
38 | CCc1ccccc1NC(=O)c1cc2nc(-c3ccc(Br)cc3)cc(C(F)(F)F)n2n1 | inconclusive: 18.4 µM [inhibitor, single point] | 
39 | COc1ccccc1C1NC(c2ccc3c(c2)OCO3)=CC(c2cc(Cl)ccc2O)N1 (centres undefined) | active: 7.94 µM | 
40 | CCc1ccc(C(=O)CC2(O)C(=O)N(Cc3ccc(C)cc3)c3ccccc32)cc1 (centres undefined) | active: 4.61 µM | 
41 | COc1ccc(C(=O)NCC2(c3ccccc3)CCOCC2)cc1[N+](=O)[O-] | inconclusive: 18.4 µM [inhibitor, single point] | 
42 | CN(C)N=C1c2cc(S(=O)(=O)N3CCOCC3)ccc2-c2ccc(S(=O)(=O)N3CCOCC3)cc21 | inconclusive: 29.1 µM [inhibitor, single point] | 
43 | COc1cccc(-c2csc(N3CCN(CC(=O)NNC(=O)c4ccc(Br)cc4)CC3)n2)c1 | inconclusive: 29.1 µM [inhibitor, single point] | 
44 | COc1ccc2nc(NC(=O)CN(c3ccc(C)cc3)S(=O)(=O)c3c(C)nn(C)c3C)sc2c1 | inconclusive: 29.1 µM [inhibitor, single point] | 
